The supplement of paper PMC3334620
Whole data set: some 33,000 sequences, median “E-score (-0.5 to 0.5)” near -0.021, cut for the highest 2% near 0.32. Some of the results follow.

Molecular target: T1, Zap1 (UniProt P47043)
T1 sequence: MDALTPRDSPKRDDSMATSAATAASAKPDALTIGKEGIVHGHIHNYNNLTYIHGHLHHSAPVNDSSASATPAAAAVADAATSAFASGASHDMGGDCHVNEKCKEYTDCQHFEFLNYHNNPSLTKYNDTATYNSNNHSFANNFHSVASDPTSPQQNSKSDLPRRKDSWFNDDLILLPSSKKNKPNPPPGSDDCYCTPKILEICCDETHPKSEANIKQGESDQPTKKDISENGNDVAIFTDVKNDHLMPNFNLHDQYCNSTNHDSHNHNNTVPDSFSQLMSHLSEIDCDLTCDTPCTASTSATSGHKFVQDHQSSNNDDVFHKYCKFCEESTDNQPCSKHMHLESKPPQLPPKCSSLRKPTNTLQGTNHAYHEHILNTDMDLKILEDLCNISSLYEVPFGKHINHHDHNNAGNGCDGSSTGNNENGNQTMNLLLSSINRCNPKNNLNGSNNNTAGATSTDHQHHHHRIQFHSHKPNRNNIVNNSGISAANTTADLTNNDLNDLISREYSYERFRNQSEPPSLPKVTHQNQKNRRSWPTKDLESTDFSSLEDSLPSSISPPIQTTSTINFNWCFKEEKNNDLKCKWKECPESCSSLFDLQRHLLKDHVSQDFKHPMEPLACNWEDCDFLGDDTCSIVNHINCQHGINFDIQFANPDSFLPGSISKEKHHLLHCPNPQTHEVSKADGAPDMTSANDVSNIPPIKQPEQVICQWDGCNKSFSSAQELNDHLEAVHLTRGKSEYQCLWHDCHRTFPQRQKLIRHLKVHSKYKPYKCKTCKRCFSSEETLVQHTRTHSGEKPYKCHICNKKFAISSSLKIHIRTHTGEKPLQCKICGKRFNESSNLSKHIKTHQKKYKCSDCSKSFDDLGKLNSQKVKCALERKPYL
Experiment: PBM E-score (8-mer binding enrichment) (E-score (-0.5 to 0.5)); higher = stronger / more preferred TF binding; most listed sequences are background and not binding sites
Conditions: protein concentration: 200 nM; construct: GST-full length
In short: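 Detection of bound protein used fluorescent anti-GST, with scans normalised by masliner. The proteins were GST-tagged yeast transcription factors applied at about 100-200 nM to universal all-10-mer Agilent arrays made double-stranded by primer extension. Each ungapped eight-base word, pooled with its reverse complement, was scored with an E-score from the Universal PBM Analysis Suite.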

Sequence | PBM E-score
GGGTAAGA | 0.0973
GCGCAAGC | -0.0825
ACGCTTAA | 0.0144
ACACCAGC | -0.271
TAGACTCA | -0.1
ACTCGGTC | 0.0105
CACAGCAA | 0.178
ACTGCTAT | -0.0537
CGACGTAA | -0.0764
CGACTCAA | -0.0614
GTCCCCGA | 0.00542
ACCGGTAT | 0.132
AAGGTGGA | 0.0564
AATGGCGC | -0.189
CGGTAAAC | 0.0266
CGATTACA | -0.0321
ATGCCAAA | 0.0814
ATCCTGAA | 0.0947
AGACATCG | -0.23
ATCGTAAA | 0.0638
GGCGTGTA | -0.258
CTGGGTGA | 0.0907
GCAACGCA | -0.244
CGGTGTCC | 0.071
ACTTTTTA | 0.113

Sequence | PBM E-score
TGCCCTAA | -0.171
AAGATAAC | 0.192
ACGTAGCT | -0.0685
GCAGCGCC | -0.171
GCATAAAC | 0.109
CGGGCCAA | -0.228
CACTAAGA | 0.0936
ATAGCTCA | -0.0466
AACATAGT | -0.0372
ATCCTGTC | -0.0221
TCAGACGA | -0.12
AGCTGATA | -0.146
AAAAAGAC | 0.214
CTAAGTAC | 0.0484
CACATCAC | -0.0433
AAGAGGAC | -0.154
TCACCCGA | 0.114
AAGAGCGG | -0.22
AGAGCAAT | -0.181
CACCTTTC | 0.0949
GACATTGC | -0.24
ATATTTAA | 0.226
CGGTACTC | 0.0175
ATGGTCCC | -0.0451
TCCTAGCA | -0.175

Sequence | PBM E-score
CCGAATGC | -0.165
TTCAAGAA | 0.184
GGTTGTAA | 0.278
CGGGCCGA | -0.105
GCGGGGAA | -0.0256
AGAAAAAG | 0.0427
CTGCCAAG | -0.158
CCTTCCCG | -0.113
GAAGGCCC | -0.059
AGTCAGGA | -0.205
AGGGAAGC | -0.273
TCGAGAAA | 0.0623
ACATAGCA | -0.241
CTATTTAA | 0.0132
ACTGCTCG | -0.159
TAGGAATA | 0.112
ATCGCGGG | 0.0185
AGTCTGAG | -0.16
AGTTAAGG | 0.103
CTACGTGC | -0.216
ATTTTATG | 0.112
GCAGAAGA | -0.0636
AGACATAA | -0.0444
CCAGTACG | -0.0816
CCGTATAG | 0.051

Sequence | PBM E-score
GTCTTTAA | 0.0536
AGTCCATC | -0.239
TATCGGAA | 0.143
GTCGCTTA | -0.141
GTGCCCTA | -0.314
AATCCCAG | -0.0283
CTAGCGAC | -0.0087
CGTCGCGA | 0.00596
AACATGAC | 0.159
ACCTGGCT | -0.0511
GAGTACGA | -0.0801
GCCATGGA | 0.0158
TCGGCTCA | -0.0173
GCAGTATA | 0.00974
CACTCTGC | -0.146
CGGGGGCC | -0.229
GGTCGGTA | 0.156
AGACTGAT | -0.223
CGTCAAGC | -0.272
GTCCGTGA | 0.0369
AATGTTCA | 0.0698
CAAGAAGG | 0.151
GTGGACCA | 0.00386
CGTTTGTC | 0.051
GATTGCCC | -0.247

Sequence | PBM E-score
CTAACCAC | 0.325
ACTGCTTC | -0.175
AGGACTAG | -0.00879
GATGCACC | -0.179
ATCATTTC | 0.146
ATACAACG | 0.033
AGTACAAG | -0.0696
AACACCAA | 0.158
CGCGTCGA | -0.0497
ACAGCACG | -0.0683
AAAGGCAC | 0.0185
CTAAAACC | 0.279
CGGCCTAG | -0.048
ACTACTCA | 0.0254
ACGTACGT | -0.268
ACCGAGCG | -0.0704
ATTAAAGA | 0.245
ATGTTTGC | 0.0328
TCGTTCCA | -0.19
AGTACTGG | -0.141
ACATCGTA | -0.127
ACATACGA | 0.0717
TCCGTGCA | -0.0954
GTGATGGA | -0.0707
TAGTCCAA | -0.09

Sequence | PBM E-score
ACACAGCG | -0.0243
AGGCCTGG | -0.232
CGTTCCAC | -0.356
CAGACTAC | -0.189
CTTAATTA | 0.0915
CAACCTTA | 0.286
ATAGACTC | -0.159
GAGTAGCA | -0.157
CAAGCCAA | -0.0144
CATTTTCA | 0.167
ACACTCCC | -0.357
GGTCCGTA | -0.00645
CAGGAATA | -0.00899
ATTTAATC | 0.161
CCAAGTTA | 0.0627
TTCCGAAA | 0.0636
ATCATAAA | 0.0839
CGGACCTA | 0.00172
GGAATAAA | 0.111
GGGTCCAA | -0.0225
TAAGTACA | 0.096
AATGGCCT | 0.0949
GGATGGAA | -0.126
ACAGCGTC | -0.0965
AGGAGCCT | -0.208

Sequence | PBM E-score
CACTGGAG | -0.202
ATCAGCAG | -0.0531
CGGACGCC | -0.0778
ACATCCGG | 0.0431
GCTTGGGA | -0.205
AATTTTAA | 0.188
GGTTCGCA | -0.115
CTGGCTTA | -0.205
GGTAAAGA | 0.0277
CTGTACCC | 0.191
ATTAAATG | 0.175
AATGAGTA | 0.0768
ATAGCCAA | 0.0173
GCGGTGCA | -0.304
CGTCTGAA | -0.151
ACCTTCCG | 0.152
AAATGCCC | -0.125
CTATTAGC | 0.0361
ACGATTTG | -0.101
AACTGGGT | 0.0979
AATTTAAG | 0.0378
AATTCCAG | 0.0209
